# In article PMC2627783 (Biochemistry, 2008):
# Positions count from the first letter of the chain named.
# T1: HscB(E97A,E100A,E104A) (E. coli, UniProt P0A6L9 1-171, E97A | E100A | E104A)
# T1 sequence (looked up): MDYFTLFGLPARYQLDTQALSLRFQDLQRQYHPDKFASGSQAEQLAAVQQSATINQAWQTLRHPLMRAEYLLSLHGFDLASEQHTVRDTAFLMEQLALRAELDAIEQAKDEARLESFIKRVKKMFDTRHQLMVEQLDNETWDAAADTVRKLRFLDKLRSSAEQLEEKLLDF
# T2: HscB(L92A,M93A,F153A) (E. coli, UniProt P0A6L9 1-171, L92A | M93A | F153A)
# T2 sequence (looked up): T1 sequence (looked up) with L92A, M93A, A97E, A100E, A104E, F153A
# B1: IscU (apo form) (natural protein, E. coli, UniProt P0ACD4 1-128, looked up)
# chain: MAYSEKVIDHYENPRNVGSFDNNDENVGSGMVGAPACGDVMKLQIKVNDEGIIEDARFKTYGCGSAIASSSLVTEWVKGKSLDEAQAIKNTDIAEELELPPVKIHCSILAEDAIKAAIADYKSKREAK
# Experiments:
# HscB(E97A,E100A,E104A) = target: T1, HscB(E97A,E100A,E104A); assay: cell-based or functional assay
# HscB(L92A,M93A,F153A) = target: T2, HscB(L92A,M93A,F153A); assay: cell-based or functional assay
binder,measurement,setting,value
B1,"HscA ATPase activity, 23 °C, with HscB mutant and IscU: maximal stimulation","HscB(E97A,E100A,E104A)",404 fold
same,"HscA ATPase activity, 23 °C, with HscB mutant and IscU: maximal stimulation","HscB(L92A,M93A,F153A)",97 fold
